Reference: PubChem BioAssay AID1768 (National Center for Advancing Translational Sciences (NCATS), 2009)
Screen size: about 270,000 compounds; about 620 (0.23%) were called active. The inconclusive results got no clear call from the source; some entries with a clear call stand among them for comparison. Calls come from the whole dose curve; as a rule, active = well fitted inhibition curve with a large enough effect in the polarisation, with a control signal flat (not every such curve was filed as active); inconclusive = small, poorly fitted or top-dose-only effect, or effect the other way, or a change in a side signal; inactive = no such curve, though single readings can be large or run the other way; the % refers to the polarisation. Where the call is inconclusive, the potency comes from a doubtful curve fit. A note “side channel” means that the fit belongs to a control or component signal, not to the main read-out.
Potency is the fitted concentration of half-maximal effect; tags give direction and shape of the fitted curve or compound fluorescence and quenching.

The molecules below were run against Menin (Homo sapiens) (UniProt O00255) (assay: qHTS Assay for Inhibitors Targeting the Menin-MLL Interaction in MLL Related Leukemias: Competition With Texas Red Labeled MLL-derived Mutant Peptide). Details: fluorescence polarization; series mostly up to 61.6 µM.
Chain of UniProt O00255 (O00255 whole entry, looked up): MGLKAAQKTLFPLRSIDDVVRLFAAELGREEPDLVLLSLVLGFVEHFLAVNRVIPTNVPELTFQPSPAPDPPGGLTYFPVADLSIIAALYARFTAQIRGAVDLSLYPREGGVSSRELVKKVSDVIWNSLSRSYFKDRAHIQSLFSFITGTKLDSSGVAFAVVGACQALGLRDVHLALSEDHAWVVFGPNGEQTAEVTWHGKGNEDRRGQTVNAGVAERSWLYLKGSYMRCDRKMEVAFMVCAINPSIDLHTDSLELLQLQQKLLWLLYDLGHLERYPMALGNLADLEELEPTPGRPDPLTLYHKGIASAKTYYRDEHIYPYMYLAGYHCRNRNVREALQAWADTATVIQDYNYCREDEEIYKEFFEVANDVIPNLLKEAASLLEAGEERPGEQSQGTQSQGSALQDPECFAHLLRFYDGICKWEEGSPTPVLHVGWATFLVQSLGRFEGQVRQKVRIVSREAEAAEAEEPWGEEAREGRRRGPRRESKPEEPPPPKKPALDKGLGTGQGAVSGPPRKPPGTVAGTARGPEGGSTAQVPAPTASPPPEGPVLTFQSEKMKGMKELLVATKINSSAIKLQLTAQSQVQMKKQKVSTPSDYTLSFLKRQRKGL
For `CCOc1ccc(-c2ccc(/C=C3/C(=N)N4C(C)=CSC4=NC3=O)o2)c([N+](=O)[O-])c1`, the Potency was inconclusive: 14.1 µM [quencher, side channel, partial curve]. In the case of `Cc1ccc(NC(=O)CSc2nc3ccccc3c(=O)n2CCCC(=O)NCCCN2CCOCC2)cc1C`, the Potency is reported as inconclusive: 8.91 µM [fluorescent, side channel, partial curve]. With `O=C(Oc1ccc(OC(=O)N2CCCCC2)cc1)c1ccccc1` the Potency was inconclusive: 3.16 µM [inhibitor, full curve]. `O=C(CC(=O)c1c(F)cccc1Cl)c1ccccc1O` was tested, and the Potency was inconclusive: 12.6 µM [inhibitor, partial curve, poor fit]. In the case of `COC(=O)C1=C(C)N(C)C(=O)NC1c1ccccc1` (stereo not given), the Potency is reported as inconclusive: 20 µM [inhibitor, single point]. `COC(=O)C1=C(CSc2nccn2C)NC(=O)NC1c1cc(C)ccc1C` (stereo not given) was tested, and the Potency was inconclusive: 39.8 µM [fluorescent, side channel, single point]. With `COC(=O)c1ccccc1NC(=O)C1=CC(c2cccs2)=NS(=O)(=O)N1C` the Potency was inconclusive: 28.2 µM [quencher, side channel, single point]. `COC(=O)C/C=C/[C@@H](C)[C@H](NC(=O)OCC(Cl)(Cl)Cl)c1ccc2ccccc2c1` was tested, and the Potency was inconclusive: 39.8 µM [inhibitor, single point]. `O=C(CSc1nc2ccccc2[nH]1)Nc1nc(-c2cccc(Br)c2)cs1` was tested, and the Potency was inconclusive: 28.2 µM [quencher, side channel, single point]. In the case of `O=C(Nc1nc(-c2cccc3ccccc23)cs1)c1ccc2c(c1)S(=O)(=O)c1ccccc1C2=O`, the Potency is reported as inconclusive: 8.91 µM [quencher, side channel, full curve]. `O=C(NCC(c1cccs1)N1CCOCC1)c1ccccc1NS(=O)(=O)c1ccc(Cl)c([N+](=O)[O-])c1` (stereo not given) was tested, and the Potency was inconclusive: 12.6 µM [quencher, side channel, partial curve]. In the case of `CC(=O)N1c2ccc(S(=O)(=O)N3CCCC3C(=O)NCc3ccc(Cl)cc3)cc2CC1C` (stereo not given), the Potency is reported as inconclusive: 17.8 µM [inhibitor, partial curve]. For `CCN(CCn1cccn1)Cc1c(C(=O)N2CCCCCCC2)nc2ccc(Cl)cn12`, the Potency was inconclusive: 3.98 µM [fluorescent, side channel, full curve, poor fit]. `Cc1nn2c(SCC(=O)c3cccs3)cc(C(C)(C)C)nc2c1-c1ccccc1` was tested, and the Potency was inconclusive: 31.6 µM [inhibitor, single point]. With `COc1ccccc1NC(=O)c1c(N=Cc2ccccc2O)cnn1C` the Potency was inconclusive: 28.2 µM [quencher, side channel, single point]. With `CCCc1ccc(O)c(N=Cc2cc(Br)cc(OCC)c2O)c1` the Potency was inconclusive: 17.8 µM [quencher, side channel, partial curve]. `O=C(Nc1ccccc1N1CCN(C(=O)c2ccccc2)CC1)c1ccco1` was tested, and the Potency was inconclusive: 2.82 µM [inhibitor, full curve, poor fit]. For `Cc1ccc(-n2ncc3c(Nc4cccc(C(=O)O)c4)ncnc32)cc1`, the Potency was inconclusive: 11.2 µM [quencher, side channel, partial curve]. In the case of `Nc1nc(SCC(=O)Nc2ccc(Br)cc2F)n[nH]1`, the Potency is reported as “inactive”. For `CC(C)C[C@@H]1NC(=O)[C@H](C(C)C)NC(=O)c2cc([N+](=O)[O-])cc(I)c2NCC[C@@H](C(N)=O)NC1=O`, the Potency was inconclusive: 28.2 µM [quencher, side channel, single point]. With `c1ccc(CNc2nc(-c3ccccn3)nc3ccccc23)cc1` the Potency was inconclusive: 2.24 µM [fluorescent, side channel, full curve, poor fit]. `Cc1nn(Cc2ccc(Cl)cc2Cl)c(C)c1NC(=O)c1ccc(COc2cc(Cl)ccc2Cl)o1` was tested, and the Potency was inconclusive: 3.16 µM [inhibitor, single point]. With `COc1cc(/C=N/NC(=O)c2cccnc2)ccc1OCC(=O)Nc1ccccc1Cl` the Potency was “inactive”. In the case of `COc1cc(CNCc2ccco2)cc(OC)c1O`, the Potency is reported as inconclusive: 39.8 µM [inhibitor, partial curve]. `Cc1cccc(C)c1-n1c(C)cc(/C=N\NC(=O)CC(=O)NC2CCCCC2)c1C` was tested, and the Potency was inconclusive: 8.91 µM [fluorescent, side channel, full curve, poor fit]. In the case of `O=[N+]([O-])c1cccc(S(=O)(=O)NCCNS(=O)(=O)c2cccc([N+](=O)[O-])c2)c1`, the Potency is reported as inconclusive: 39.8 µM [inhibitor, single point]. With `CCCCC1CCC(c2nc(-c3cccnc3)no2)CC1` (stereo not given) the Potency was inconclusive: 39.8 µM [fluorescent, side channel, single point]. In the case of `O=C(/C=C/c1ccccc1)N1CCCC1CO` (stereo not given), the Potency is reported as inconclusive: 1.26 µM [fluorescent, side channel, single point]. For `CCN=c1scc(C)n1/N=C/c1ccc(O)c(O)c1O`, the Potency was inconclusive: 28.2 µM [quencher, side channel, single point]. With `N#C/C(=C(/O)COC(=O)CSc1ccc2ccccc2c1)c1nc2ccccc2[nH]1` the Potency was inconclusive: 22.4 µM [quencher, side channel, single point]. In the case of `CCOC(=O)C1CCN(Cc2ccc(O)c3ncccc23)CC1`, the Potency is reported as “inactive”. With `Cc1ccc(CNC(=O)C2CCN(S(=O)(=O)c3ccc(Br)s3)CC2)cc1` the Potency was inconclusive: 39.8 µM [inhibitor, single point]. With `O=C(O)c1cccc(NC(=O)c2ccc(COc3ccc(Cl)cc3)cc2)c1` the Potency was inconclusive: 17.8 µM [quencher, side channel, partial curve]. `CCOc1ccc(C(=O)NNC2CC(=O)N(Cc3ccc(Cl)cc3)C2=O)cc1OC` (stereo not given) was tested, and the Potency was inconclusive: 17.8 µM [quencher, side channel, partial curve]. `Cn1c(C(=O)Nc2ccccc2)cc2sccc21` was tested, and the Potency was inconclusive: 17.8 µM [quencher, side channel, single point]. `CCCCCCCn1c(=N)n(CC(O)c2ccco2)c2ccccc21` (stereo not given) was tested, and the Potency was inconclusive: 14.1 µM [fluorescent, side channel, partial curve]. For `Cc1cc(-c2nc3cccnc3s2)ccc1NS(=O)(=O)c1cccs1`, the Potency was inconclusive: 3.55 µM [quencher, side channel, full curve]. `COc1ccc(S(=O)(=O)N(C)CC(=O)Nc2ccccc2SC)cc1Cl` was tested, and the Potency was inconclusive: 28.2 µM [quencher, side channel, single point]. In the case of `O=C(Nc1nc2c(F)cc(F)cc2s1)c1ccccn1`, the Potency is reported as inconclusive: 14.1 µM [quencher, side channel, partial curve]. For `O=C(Cc1cc(C(=O)O)c2ccccc2n1)Nc1ccccc1`, the Potency was inconclusive: 35.5 µM [fluorescent, side channel, single point]. With `C/C(=N\NS(=O)(=O)c1ccc(Cl)c([N+](=O)[O-])c1)c1cc2ccccc2o1` the Potency was inconclusive: 25.1 µM [quencher, side channel, partial curve]. With `O=C(C1=C[C@@H](c2ccc(C(F)(F)F)cc2)C[C@@H](OCCCCO)O1)N1CCN(Cc2ccc3c(c2)OCO3)CC1` the Potency was inconclusive: 6.31 µM [fluorescent, side channel, full curve]. `O=C(CC1S/C(=N\S(=O)(=O)c2ccccc2)N(c2ccccc2)C1=O)Nc1ccc(F)cc1` (stereo not given) was tested, and the Potency was inconclusive: 12.6 µM [quencher, side channel, partial curve]. With `CCCCc1[nH]c(=O)c(C#N)c2c1CCCC2` the Potency was “inactive”. `COc1ccccc1[C@@H]1C(c2cccc(Cl)c2)=NN(c2ccc(Br)cc2)[C@H]1C(=O)N1CCOC1=O` was tested, and the Potency was inconclusive: 8.91 µM [inhibitor, partial curve]. `COc1ccc(C(=O)CSc2nnc(CCc3ccccc3)n2-c2ccccc2)cc1` was tested, and the Potency was inconclusive: 1.41 µM [fluorescent, side channel, full curve, poor fit]. In the case of `COc1ccc(C(=O)N2CCN(C3CCN(Cc4ccccc4)CC3)CC2)cc1OC`, the Potency is reported as “inactive”. With `Cc1cc(C)n(C(=O)CNC(=O)c2ccccc2Br)n1` the Potency was inconclusive: 0.631 µM [quencher, side channel, full curve, poor fit]. For `Cc1ccc(CN2C(=O)S/C(=C\c3ccccc3OCC(=O)O)C2=O)cc1`, the Potency was inconclusive: 25.1 µM [quencher, side channel, single point]. In the case of `Oc1c(Br)cc(/C=N/n2c(-c3ccccc3)n[nH]c2=S)c(O)c1Br`, the Potency is reported as inconclusive: 25.1 µM [quencher, side channel, single point]. With `COc1ccc(CCn2c(S)nc3ccccc3c2=O)cc1` the Potency was inconclusive: 25.1 µM [fluorescent, side channel, partial curve]. In the case of `N#C/C(=C\c1ccc(OCc2ccc(Cl)cc2)cc1)C(=O)Nc1cccc(C(=O)O)c1`, the Potency is reported as inconclusive: 11.2 µM [quencher, side channel, partial curve]. With `S=c1nc[nH]c2c1ncn2C1CCCO1` (stereo not given) the Potency was inconclusive: 17.8 µM [inhibitor, single point]. With `O=C(N[C@@H](Cc1c[nH]c2ccccc12)C(=O)O)c1ccc(Cl)cc1` the Potency was inconclusive: 4.47 µM [quencher, side channel, full curve, poor fit]. For `Cc1ccc2cc(/C=N/NC(=O)c3ccccc3O)c(Cl)nc2c1`, the Potency was inconclusive: 7.94 µM [quencher, side channel, full curve, poor fit].
